# The full ranking holds about 33,000 sequences; the median of “E-score (-0.5 to 0.5)” is about -0.016, and the highest 2% start at about 0.31. Some of the results follow.
# Biological target: Cst6 (UniProt P40535)
# Test: PBM E-score (8-mer binding enrichment) (E-score (-0.5 to 0.5)); higher = stronger / more preferred TF binding; most listed sequences are background and not binding sites
# Details: protein concentration: 200 nM; construct: GST-DNA-binding domain
# How it was run: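 PURExpress in vitro transcription/translation supplied GST-tagged yeast transcription factors, either full-length or DNA-binding domain. Applied at about 100-200 nM to universal all-10-mer Agilent arrays double-stranded by primer extension, the bound protein was detected with fluorescent anti-GST. E-scores, modified Wilcoxon-Mann-Whitney statistics, were given by the Universal PBM Analysis Suite to ungapped eight-base words pooled with their reverse complements after masliner normalisation.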
row,Sequence,PBM E-score
1,GCGCTTTA,0.154
2,AGTTCTTC,0.118
3,ACTACACG,0.00623
4,ATCTTTTG,0.103
5,AGCGGGGG,-0.403
6,CAGGCGAA,0.0088
7,AATAGTAA,0.135
8,AAGTTGCC,-0.143
9,ATGGCCCG,-0.113
10,AAGGCTCA,0.0248
11,AGGGGTCA,-0.12
12,CATTCGTA,0.114
13,TACTCTAA,0.0112
14,ACATCATG,0.409
15,GCTGACAC,-0.085
16,CGAAGACA,-0.0389
17,AGGCACTG,0.0504
18,CCTGCAAG,-0.196
19,TGACGGAA,0.432
20,AGAGCCCT,-0.213
21,AACGCGCT,-0.111
22,CCACTGGC,-0.244

row,Sequence,PBM E-score
1,GCAAATTA,0.125
2,CGGCGAGC,0.1
3,GCGATAAA,0.0621
4,ACTGGGAG,-0.206
5,CGCTCCCA,-0.219
6,CCTAACTA,0.0863
7,CTACACAA,0.0767
8,GGCACCCA,-0.122
9,ATAGCCGG,-0.102
10,CCTCCATA,-0.0258
11,AAAGCGTT,-0.116
12,CCCGTAGG,-0.244
13,CGAGTTAG,-0.036
14,GACAGGGA,-0.162
15,GACTGCCC,-0.228
16,GATGGAGC,-0.201
17,AAGGCTAA,0.0771
18,GAAAGCAC,0.122
19,ATGAATCG,0.04
20,GCAGTGGA,0.0181
21,ACACTTAG,0.0896
22,AGCGGGAC,-0.211

row,Sequence,PBM E-score
1,GATTACGA,0.364
2,GCGTCGTA,0.137
3,CCTGCAGA,-0.081
4,AACCGCCC,-0.292
5,CACAATGC,-0.0378
6,GTTTGTAA,0.0409
7,CCCAGATC,-0.32
8,ACATTCTG,0.0657
9,CAAGAGTC,-0.213
10,GCATAACC,-0.217
11,ATACCCGG,-0.215
12,ATGGAAAC,-0.025
13,CACTGGGG,-0.271
14,CAGACAAA,0.136
15,GGTGTTCA,0.00946
16,AGCAGCAT,-0.207
17,CGAGCTGA,-0.00935
18,AGGTGACC,0.046
19,ACTACTCC,-0.128
20,GATGTATA,0.143
21,TCCTGGAA,-0.221
22,CCCACACC,-0.12

row,Sequence,PBM E-score
1,AACTTCTG,0.0936
2,CCGCGTAC,0.0816
3,ACCGACGC,-0.0568
4,CCAAGGGA,-0.35
5,CACGGCGA,0.21
6,CCTTCACA,-0.0836
7,CTGACGGA,0.165
8,ACACCAAG,-0.0647
9,AATCGAGC,0.0689
10,GGACACTA,-0.0576
11,ACACCCAA,-0.0561
12,AGTATCGA,0.198
13,AGGCATTG,-0.0603
14,CGACAGCG,-0.145
15,TACGAATA,0.189
16,ACAGGACA,0.0954
17,CGCACTGA,0.0585
18,ACCCGCCG,0.0323
19,GCTAAGGA,-0.223
20,CTAGCGTA,-0.303
21,AGACTAGC,-0.239
22,AAGTTGCT,-0.0202

row,Sequence,PBM E-score
1,GTACCTAC,-0.224
2,ACCTGTTA,-0.0507
3,CTCACCGA,0.048
4,ACTTTTGC,0.165
5,AGAATGCG,0.0202
6,AGCAGCCG,0.0863
7,TCAGCCAA,-0.129
8,ATCTCGCA,0.257
9,AAGACTAA,0.0225
10,ATGTCACA,0.375
11,TGATGGAA,0.19
12,AATGTGAG,0.0831
13,GTTTAAAA,0.247
14,CCTTTGAC,-0.0709
15,CTCTTGGC,-0.146
16,CGCGTCAC,0.418
17,ATTTCAGG,0.0994
18,GCCATTGA,0.0377
19,CCAACTTA,0.0114
20,GAAGCTGC,-0.117
21,ATGTTGGC,-0.0418

# Source: the supplement of paper PMC3334620
